Assay results taken from the GPR68 mutational scans of Howard et al. (2025).
Scores with a large standard error are left out. The source holds two more conditions with little spread; they are left out. In variant names, del marks residues removed and ins residues inserted between the two positions. For some assays here: The concentration of ogerin is not given here.

B1: GPR68, Q15743 (parent)
chain: MGNITADNSSMSCTIDHTIHQTLAPVVYVTVLVVGFPANCLSLYFGYLQIKARNELGVYLCNLTVADLFYICSLPFWLQYVLQHDNWSHGDLSCQVCGILLYENIYISVGFLCCISVDRYLAVAHPFRFHQFRTLKAAVGVSVVIWAKELLTSIYFLMHEEVIEDENQHRVCFEHYPIQAWQRAINYYRFLVGFLFPICLLLASYQGILRAVRRSHGTQKSRKDQIQRLVLSTVVIFLACFLPYHVLLLVRSVWEASCDFAKGVFNAYHFSLLLTSFNCVADPVLYCFVSETTHRDLARLRGACLAFLTCSRTGRAREAYPLGAPEASGKSGAQGEEPELLTKLHPAFQTPNSPGSGGFPTGRLA

How the values were obtained:
[1] = variants of: B1; test: cAMP reporter score (Enrich2 score, wild type = 0); higher = more signal; HEK293T, FACS bins
[2] = variants of: B1; test: surface expression score (Enrich2 score, wild type = 0); higher = more signal; HEK293T, FACS bins

| Variant | cAMP reporter score ([1]; pH 5.5) | cAMP reporter score ([1]; pH 6) | cAMP reporter score ([1]; pH 6, modulator: ogerin) | cAMP reporter score ([1]; pH 6.5, modulator: ogerin) | surface expression score [2] |
| --- | --- | --- | --- | --- | --- |
| P243M | -1.34 | -1 | -1.3 | -0.622 | -1.5 |
| P243N | -1.26 | – | -0.987 | -1.24 | -3.04 |
| P243Q | -1.22 | -1.06 | -1.23 | -1.55 | -2.1 |
| P243R | -0.952 | -0.788 | -1.77 | -1.63 | -1.47 |
| P243S | -1.21 | -0.267 | -1.79 | -1.53 | -1.8 |
| P243T | -1.56 | -1.86 | -1.5 | -1.03 | -1.79 |
| P243V | -0.925 | -1.01 | -1.01 | -0.961 | -1.29 |
| P243W | -1.75 | -1.26 | -1.33 | -1.65 | -1.94 |
| P243Y | -1.06 | -1.48 | -0.585 | -1.03 | -2.2 |
| P243_H245del | -0.977 | -0.666 | -1.24 | -1.08 | -2.18 |
| P243_Y244del | -1.6 | -1.23 | -1.14 | -1.11 | -3.15 |
| Y244_H245insGS | -1.72 | -1.07 | -1.5 | -1.11 | -2.42 |
| Y244_H245insGSG | -1.68 | -0.06 | -1.3 | -0.786 | -2.39 |
| H245_L247del | -1.28 | 0.317 | -1.28 | -1.03 | -1.96 |
| V246_L247insG | -1.22 | – | -2.83 | -0.749 | – |
| L247A | -0.072 | 0.38 | 0.476 | 0.493 | -0.892 |
| L247C | -0.67 | 0.256 | -0.308 | -0.575 | -2.14 |
| L247D | -1.34 | -1.53 | -1.45 | -0.86 | -1.9 |
| L247F | 1.1 | 1.14 | 1.49 | 0.786 | -0.299 |
| L247G | 0.065 | -0.954 | -0.334 | -0.039 | -1.09 |
| L247H | -0.491 | -0.79 | -0.584 | -0.403 | -2.38 |

| Variant | cAMP reporter score ([1]; pH 5.5) | cAMP reporter score ([1]; pH 6) | cAMP reporter score ([1]; pH 6, modulator: ogerin) | cAMP reporter score ([1]; pH 6.5, modulator: ogerin) | surface expression score [2] |
| --- | --- | --- | --- | --- | --- |
| L247I | 0.944 | 0.174 | 0.067 | -0.034 | 1.52 |
| L247K | -2.23 | -1.45 | -2.08 | -1.19 | -2.2 |
| L247M | 0.345 | – | 1.19 | 2.05 | 0.828 |
| L247N | 0.044 | -1.5 | -0.46 | -0.714 | -1.44 |
| L247P | -1.56 | -1.02 | -1.78 | -1.34 | -2.81 |
| L247Q | -0.938 | -0.272 | -0.245 | -1.65 | -2.76 |
| L247R | -2.35 | -1.5 | -2.15 | -1.17 | -2.64 |
| L247S | -0.298 | -1.3 | – | 4.65 | -0.829 |
| L247T | 0.637 | 1.08 | 0.168 | 0.35 | 0.753 |
| L247V | -0.288 | – | 0.042 | -1.44 | -0.095 |
| L247W | -1.03 | -0.608 | -0.733 | -1.21 | -1.5 |
| L247Y | -0.317 | -1.64 | -1 | -1.76 | -1.79 |
| L247_L248insGS | -1.86 | -0.991 | -1.73 | -1.11 | -2.81 |
| L247_L248insGSG | -2.25 | -1.99 | -1.48 | -0.98 | -2.27 |
| L247_L249del | -1.99 | -1.25 | -1.31 | -1.54 | -1.82 |
| L247del | -1.35 | -0.985 | -1.57 | -1.46 | -1.35 |
| L248_L249insG | -1.29 | -0.631 | -1.06 | -0.547 | -2.63 |
| L248_L249insGS | -0.885 | -1.48 | – | -0.822 | -2.92 |
| L249A | -0.005 | -1.18 | -0.714 | -1.02 | -1 |
| L249C | -0.556 | -1.45 | -0.578 | -1.15 | -1.71 |
| L249E | -1.06 | – | – | -1.91 | – |

| Variant | cAMP reporter score ([1]; pH 5.5) | cAMP reporter score ([1]; pH 6) | cAMP reporter score ([1]; pH 6, modulator: ogerin) | cAMP reporter score ([1]; pH 6.5, modulator: ogerin) | surface expression score [2] |
| --- | --- | --- | --- | --- | --- |
| L249F | 0.912 | 0.242 | 1 | -0.406 | 1.45 |
| L249G | -0.107 | – | – | -0.954 | -1.57 |
| L249H | -1.7 | -0.472 | -1.85 | -1.68 | -2 |
| L249I | 0.595 | -0.632 | 0.644 | 0.217 | -0.211 |
| L249K | -1.65 | -0.326 | -1.04 | -1.02 | -2.35 |
| L249M | -0.259 | 0.447 | -0.74 | -0.717 | -0.796 |
| L249N | -1.22 | – | – | -1.31 | -2.61 |
| L249P | -1.72 | -1.25 | -1.31 | -1.33 | – |
| L249Q | -1.21 | -1.22 | -2.08 | -0.081 | -1.58 |
| L249R | -2.35 | -1.67 | -1.59 | -1.28 | -1.74 |
| L249S | -0.541 | -0.756 | -1.45 | -1.48 | -2.14 |
| L249T | -1.46 | 0.601 | -1.35 | -0.445 | -1 |
| L249V | -0.416 | -1.17 | -0.568 | -0.867 | -0.348 |
| L249W | -1.6 | – | 0.492 | -1.24 | – |
| L249Y | 0.618 | -0.267 | -0.389 | 0.041 | -0.256 |
| L249_V250del | -1.36 | -0.315 | -2 | -1.19 | -2.16 |
| L249_V250insG | -1.1 | -0.967 | -1.92 | -1.03 | -2.35 |
| L249_V250insGSG | -1.67 | -1.16 | -0.727 | -0.887 | -2.72 |
| V250A | -0.496 | -0.213 | -0.606 | -0.462 | -0.459 |
| V250C | 1.08 | – | 1.68 | 0.963 | – |
| V250D | -1.22 | 0.419 | -0.163 | -1.16 | -0.63 |
